Variants at the background level are over-represented here.
B1: TPR 5TU (parent)
chain: GGAUCUUCUCGAUCUAACAAAAAAGACAAAUCUGCCACAAAGCUUGAGAGCAUCUUCGGAUGCAGAGGCGGCAGCCUUCGGUGGCGCGAUAGCGCCAACGUUCUCAACUAUGACACGCAAAACGCGUGCUCCGUUGAAUGGAGUUUAUCAUG

Variants of: B1
Test: polymerase ribozyme fitness, log enrichment relative to wild type (log ratio); higher = more active; in vitro selection for triplet polymerase activity
How it was run: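 Mutant libraries were PCR-built and transcribed for each subunit of a heterodimeric triplet polymerase ribozyme and selected for one round in triplicate at −7 °C, frozen, before gel excision of extended constructs and streptavidin-bead capture. Input and output libraries were Illumina-sequenced, keeping genotypes with ≥10 input reads and ≥1 read per output. Fitness is a logarithmic ratio of genotype to wild-type enrichment, in base 2, using inverse-variance-weighted replicate averages.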

GGAUCUUCUCGAUCUAACAAAAAAGACAAAUCUGCCGCAAAGCUUGAGAGCAUCUUCAGAUGCAGAGGCGGCAGCCUUCGGUGGCGCGAUACCGCCAACGUUCUCAACUAUGACACGCAAAACGCGUGCUCCGUUGAAUUGAGUUUAUCAUG [A37G G58A G92C G140U] and GGAUCUUCUCGAUCUAACAAAAAAGACAAAUCUGCCGCAAAGCUUGAGAGCAUCUUCGGAUGCAGUGGCGGCAGCCUUCGGUGGCGCGAUAGCGCAAACGUUUUCAACUAUGACACGCAAAACGCGUGCUCCGUUGAAUGGAGUUUAUCAUG [A37G A66U C96A C103U] cannot be ordered by “polymerase ribozyme fitness (log ratio)” value: at most -4.2 for the first, at most -4.2 for the second.

GGAUCUUCUCGAUCUAACAAAAAAGACAAAUCUGCCGCAAAGCUUGAGAGCAUCUUCGGAUGCAGAGGCGGCAGCCCUCGGUGGCGCGAUUGCGCCAACGUUCUCAACUAUGACACGCAAAACGCGUGCUCCGUUGAAUGGAGUUUAUCAUG [A37G U77C A91U] and GGAUCUUCUCGAUCUAACAAAAAAGACAAAUCUGCCGCAAAGCUUGAGAGCUUCUUCGGAUGCAGAGGCGGCAGCCUUCGGUGGCGCGAUAGCGCCAACGUUCUCAACUAUGACACUCAACACGCGUGCUCCGUUGAGUGCAGUUUAUCAUG [A37G A52U G117U A121C A138G G141C] cannot be ordered by “polymerase ribozyme fitness (log ratio)” value: at most -4.2 for the first, at most -4.2 for the second.

GGAUCUUCUCGAUCUAACAAAAAAGACAAAUCUGCCGCAAAGCUUGAGAGCAUCUUCGGAUGCAGAGGCGGCAGCCUUCGGUGGUGCUAUAGCGCCAACGUUCUCACCUAUGACACGCAAAACGCGUGCUCCGUUGAAUGGAGUUUAUCAUG [A37G C85U G88U A107C] and GGAUCUUCUCGAUCUAACAAAAAAGACAAAUCUGCCGCAAAGCUUGACACCAUCUUCGGAUGCAAAGGCGGCAUCCUUCGGUGACGCGAUAGCGCCAACGUUUUCAACUAUGACACGCAAAACGCGUGCUCCGUUAAAUGGAGUUUAUCAUG [A37G G48C G50C G65A G74U G84A C103U G136A] cannot be ordered by “polymerase ribozyme fitness (log ratio)” value: at most -4.2 for the first, at most -4.2 for the second.

First: GGAUCUUCUCGAUCUAACAAAAAAGACAAAUCUGCCUCCAAGCUUGAGAGCAUCUUCGGAUGCAGAGGCGGCAGCCUUCGGUGGCGCGAUAGCGCCAACGUUGUCAACUAUGACACGCAGAACGCGUGCUCCGUUGAAUGGAGUUUAUCAUG [A37U A39C C103G A120G]
Second: GGAUCUUCUCGAUCUAACAAAAAAGACAAAUCUGCCGCAUAGCUUGAGAGCAUGUUCGGGUGCAGAGGCGGCAGCCUUCGGUGGCGCGAUAGCGCCAACGUUCUCAACUAUGACACGCAAAACGCGUGCUCCGUUGAAUGGAGUUUAUCAUG [A37G A40U C54G A60G]
The “polymerase ribozyme fitness (log ratio)” value of the first is lower: at most -4.2 for the first, -2.66 for the second.

GGAUCUUCUCGAUCUAACAAAAAAGACAAAUCUGCCGCAAAGCUUGAGAGUAUCUUCGGAUGCAGAGGCGGGAGCCUUCGGUGGCGCGAUAGCGCCAACGUUCUCAACUAUGACACGCAAAACGCGUGCUCCGUUGAAUGGAGUUUAUCAUG [A37G C51U C72G] and GGAUCUUCUCGAUCUAACAAAAAAGACAAAUCUGCCGCAAAGCUUGAGAGCAUAUUCGGAUGCAGAGGUGGCAGCCUUCGGUGGCACGAUAGCGCCAACGUUCUCAACUAUGACACGCAAACCGCGUGCUCCCUUGAAUGGAGUUUAUCAAG [A37G C54A C69U G86A A122C G133C U151A] cannot be ordered by “polymerase ribozyme fitness (log ratio)” value: at most -4.2 for the first, at most -4.2 for the second.

GGAUCUUCUCGAUCUAACAAAAAAGACAAAUCUGCCGCAAAGCUAGAGAGCAUCUUCGGAUGCAGAGGCGGCAGCGUUCGGGGGCGCGAUAGGGCCAACGUUCUCAACUAUGCCACGCAAAACGCGUGCUCCGUUUAAUGGAGUUUAUCAUG [A37G U45A C76G U82G C93G A113C G136U] and GGAUCUUCUCGAUCUAACAAAAAAGACAAAUCUGCCGCAAAACUUGAGAGCAUCUACGGAUACAGAGGCGGCAGCCUUCUGUGGCGCGAUAGAGCCAACGUUCUCAACUAUGACACGCAAAACGCGUGCUCCGUUGAAUGAAGUUUAUCAUG [A37G G42A U56A G62A G80U C93A G141A] cannot be ordered by “polymerase ribozyme fitness (log ratio)” value: at most -4.2 for the first, at most -4.2 for the second.

GGAUCUUCUCGAUCUAACAAAAAAGACAAAUCUGCCGCAAAGCUUGAGAGCACCUUCGGAUGCAGAGGCGGCAGCCUUCGGUGGCGGGAUAGCGCCAACGUUCUCAACUAUGACACGCAAAACGCGUGCUCCGUUGAAUGGAGUUUAUCAUG [A37G U53C C87G] and GGAUCUUCUCGAUCUAACAAAAAAGACAAAUCUGCCGCAAAGCUUGAGAGCCUCUUCGGAUGCAGCGGCGGCCGCCUUCGGUGGCGCGAUAGCGCCAACGUUCUCAACUAUGACACGCAAAACGCGUGCUCCGUUGAAUGGAGUUUAUCAUG [A37G A52C A66C A73C] cannot be ordered by “polymerase ribozyme fitness (log ratio)” value: at most -4.2 for the first, at most -4.2 for the second.

GGAUCUUCUCGAUCUAACAAAAAAGACAAAUCUGCCGCAACGCUUGAGAGCAUCUUCGGAUGCAGAGGCGACAGCCUUCGGUGGCGCGAAAGCGCUAACGUUCUCAACUAUGACACGCAAAACGCGUGCUCCGUUGAAUGGAGUUUAUCAUG [A37G A41C G71A U90A C96U] and GGAUCUUCUCGAUCUAACAAAAAAGACAAAUCUGCCGAAAAGUUUGAGAGCAUGUUCGGAUGCAGAGGCGGCAGCCUUCUGUGGCGCGAUAGCGCCAACGUUCGCAACUAUGACACGCAAAACGCGUGCUCCGUUGAAUGGAGUUUAUCAUG [A37G C38A C43U C54G G80U U104G] cannot be ordered by “polymerase ribozyme fitness (log ratio)” value: at most -4.2 for the first, at most -4.2 for the second.

Compared with GGAUCUUCUCGAUCUAACAAAAAAGACAAAUCUGCCGCAAAGCUUUAGAGCUUCUUCGGAUGCAGAGGCGGCAGCCUUCGGUGGCGCGAUAGAGCGAACUUUCUCAACUAUGACACGCAAAACGCGUGCUCCGUUGAAUGGAGUUUAUCAUG [A37G G46U A52U C93A C96G G100U], GGAUCUUCUCGAUCUAACAAAAAAGACAAAUCUGCCGCAAAGCUUGAGAGCAUCUUCGGAUGCAGAGGCGGCAGCCUUCGGUGGCGCGAUAGCACCAACGUUCUCAACUAUGACACGCAAAACGCGUGCUCCGUUGAAUGGAGUUUAUCAUG [A37G G94A] is higher in “polymerase ribozyme fitness (log ratio)” value: at most -4.2 for the first, -1.49 for the second.

With GGAUCUUCUCGAUCUAACAAAAAAGACAAAUCUGCCUCAAGGCUAGAGAGCAUCUUCGGAUGCAGAGGCGGCAGCCUUCGGUGGCGCGAUAGUGCCAACGUUCUCAACUAUGACACGCUAAACGCGUGCUCCGUUGAAUGGAGUUUAUCAUG [A37U A41G U45A C93U A119U] the “polymerase ribozyme fitness (log ratio)” value was at most -4.2.

Source: the RNAGym collection of RNA variant scans (doi:10.1073/pnas.2313332121)
